Among all 190,000 compounds or so, about 360 (0.19%) were called active. Inconclusive results, whose numbers are uncertain, are shown with a selection of clear calls.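 The calls were made as follows: active = GTP binding activity at least 20 points away from 100%, either lowered or raised; inconclusive = signal likely due to the compound's own green fluorescence; inactive = the rest.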
Each compound was assayed against Ras-related protein Rab-2A (Canis lupus familiaris) (UniProt P61105) (assay: Rab2 wt fluorescent GTP binding changes, either direction – biochemical, dog, bead-based flow cytometry, multiplex, primary screen (AID 760;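 also: 0% = beads with excess unlabeled GTP and 100% = no-compound control corrected for plate trend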)). Conditions: GST-Rab2 wt beads, Bodipy-GTP binding, at 10 µM.
For `Cc1ccc(-n2c(SCC(=O)N3CC(=O)Nc4ccccc43)nc3ccccc3c2=O)cc1`, the GTP binding activity was inactive: 103%. In the case of `O=c1c2cccnc2n(-c2ccccc2)n1Cc1ccc(Cl)cc1`, the GTP binding activity is reported as inconclusive: 95%. With `Cc1cc(C(=O)NCC(C)C)c2ccccc2n1` the GTP binding activity was inconclusive: 102%. For `CCn1cc(CNC(=S)Nc2cccc3ccccc23)cn1`, the GTP binding activity was inactive: 99%. For `N#Cc1c(N)nc2c(c1N)CC(CCl)O2` (stereo unspecified), the GTP binding activity was inconclusive: 85%. In the case of `CN(Cc1cnn(-c2ccc(F)cc2)c1)Cc1nc(Cc2ccccc2)no1`, the GTP binding activity is reported as inconclusive: 91%. `Cc1ccccc1-n1nc(C)c2cc(C(=O)NCc3cccnc3)sc21` was tested, and the GTP binding activity was inconclusive: 103%. For `CC1CCCCC1NC(=O)COC(=O)c1ccccn1` (stereo unspecified), the GTP binding activity was inconclusive: 102%. In the case of `C/C(=N\NC(=O)c1c[nH]c2ccccc12)c1ccccn1`, the GTP binding activity is reported as inconclusive: 80%. With `COc1ccc(F)cc1C(=O)C1CCCN(C(=O)c2ocnc2C)C1` (stereo unspecified) the GTP binding activity was inactive: 103%. For `Cc1cc(C(=O)CSc2nnc(-c3ccccc3)o2)c(C)n1CC1COc2ccccc2O1` (stereo unspecified), the GTP binding activity was inconclusive: 85%. For `COC(=O)c1ccc(N=NNc2cccc(Br)c2)cc1`, the GTP binding activity was inactive: 94%. For `C#CCn1cc(/C=N/NC(=O)COc2cccc3cccnc23)c2ccccc21`, the GTP binding activity was inconclusive: 100%. `Cc1cc(NC(=S)N(Cc2ccc(Br)cc2)Cc2ccc(C(=O)O)cc2)ccc1Cl` was tested, and the GTP binding activity was inactive: 100%. For `Cc1nc2ccc3nc(NC(=O)c4ccc5c(c4)OCCO5)sc3c2s1`, the GTP binding activity was inconclusive: 108%. `O=C(NNC(=O)C1CCCN(c2ncccn2)C1)c1ccncc1` (stereo unspecified) was tested, and the GTP binding activity was inactive: 98%. For `c1ccc(-c2nnc3n2N=C(c2ccc4c(c2)OCO4)CS3)nc1`, the GTP binding activity was inconclusive: 83%. For `COc1ccc(N)cc1-n1cnnn1`, the GTP binding activity was inactive: 100%. In the case of `COc1ccc(CCc2nnc(CCC(=O)NCc3ccc4ncccc4c3)o2)cc1`, the GTP binding activity is reported as inactive: 97%. With `O=C(COC(=O)c1ccccc1NC(=O)C1CC1)c1ccc2c(c1)OCCO2` the GTP binding activity was inactive: 99%. In the case of `CCOc1cc(C(=O)NCc2ccc(C)cc2)ccc1OCC(=O)N1CCOCC1`, the GTP binding activity is reported as inconclusive: 92%. `O=C(NCc1ccc2c(c1)OCO2)c1ccc2c(c1)C(=O)N(CC1CCCO1)C2=O` (stereo unspecified) was tested, and the GTP binding activity was inconclusive: 93%. For `O=C(/C=C\c1cccs1)N1CCN(Cc2ccc3c(c2)OCO3)CC1`, the GTP binding activity was inactive: 101%. `O=C(CC12CC3CC(CC(C3)C1)C2)NCC(c1ccc(F)cc1)N1CCOCC1` (stereo unspecified) was tested, and the GTP binding activity was inactive: 95%. `Cc1ccc(C)c(N2CCN(C(=O)CN(C)S(=O)(=O)c3ccc4c(c3)CCC(=O)N4)CC2)c1` was tested, and the GTP binding activity was active: 77%. With `Cc1nc(/C=C\C(=O)O)c2cc(C)oc2n1` the GTP binding activity was inactive: 94%. `O=C(NNS(=O)(=O)c1ccc2ccccc2c1)c1cc(-c2ccccn2)nc2ccccc12` was tested, and the GTP binding activity was inconclusive: 91%. In the case of `O=C(O)CCCN1C(=O)/C(=C/c2ccc(-c3nc4ccccc4s3)o2)SC1=S`, the GTP binding activity is reported as inconclusive: 78%. `CC1CCCCC1NC(=O)Cn1nnc(-c2ccc(Cl)cc2)n1` (stereo unspecified) was tested, and the GTP binding activity was inconclusive: 103%. With `CCC(O)CNc1nc(SC)nc2sc3c(c12)CCN(C)C3` (stereo unspecified) the GTP binding activity was inactive: 97%. With `COc1ccc(C2Nc3ccccc3C(=O)N2Cc2ccccc2)cc1COc1ccccn1` (stereo unspecified) the GTP binding activity was inconclusive: 108%. For `COc1ccc(C(=O)Nc2nc3ccccc3[nH]2)cc1S(=O)(=O)N1CCOCC1`, the GTP binding activity was active: 77%. In the case of `CC(CCc1ccccc1)NCC(O)COc1ccccc1` (stereo unspecified), the GTP binding activity is reported as inactive: 101%. `CN1CCN(NC(=O)c2cc([N+](=O)[O-])cc([N+](=O)[O-])c2)CC1` was tested, and the GTP binding activity was inactive: 98%. `Cc1onc(-c2ccccc2Cl)c1C(=O)NCc1cccs1` was tested, and the GTP binding activity was inconclusive: 106%. For `O=c1ccc(C(F)(F)F)cn1Cc1cc(=O)n2cc(Br)ccc2n1`, the GTP binding activity was inconclusive: 123%. With `COc1ccc(Cl)cc1-c1nc(SCC(=O)N(C)CCC#N)n[nH]1` the GTP binding activity was inconclusive: 92%. In the case of `O=[N+]([O-])c1ccc2nc(CCCc3nc4ccc([N+](=O)[O-])cc4[nH]3)[nH]c2c1`, the GTP binding activity is reported as inconclusive: 95%. `CC(C)n1c(O)c(N=Nc2ccc(Cl)nn2)c2ccccc21` was tested, and the GTP binding activity was active: 129% [activator]. With `CCc1ccc(N=C2N=C(N)c3ccccc32)cc1` the GTP binding activity was inconclusive: 102%. In the case of `Cn1c(N)c(C(=O)COC(=O)[C@@H]2CCCN2S(=O)(=O)c2ccc(Cl)cc2)c(=O)n(C)c1=O`, the GTP binding activity is reported as inactive: 95%. In the case of `CN(C(=O)COC(=O)c1c[nH]c(=O)[nH]c1=O)C1CCCCC1`, the GTP binding activity is reported as inconclusive: 103%. For `COCCCNC(=O)Cn1cc(C(=O)C2CC2)c2ccccc21`, the GTP binding activity was inconclusive: 91%. In the case of `CNC(=S)N(CCc1cccc(C)c1)Cc1cc2cc(OC)c(OC)cc2[nH]c1=O`, the GTP binding activity is reported as inconclusive: 97%. `CCc1ccc(C(C(=O)NC2CCCC2)N(C(=O)/C=C/C(=O)Nc2cc(C)on2)c2ccccc2C)cc1` (stereo unspecified) was tested, and the GTP binding activity was inactive: 98%. In the case of `O=C(Cn1cc2c(n1)CCCCC2)Nc1c(F)c(F)cc(F)c1F`, the GTP binding activity is reported as inconclusive: 103%. In the case of `O=C(Nc1ccccc1)c1ccc(Cn2cc(C(F)(F)F)ccc2=O)cc1`, the GTP binding activity is reported as inconclusive: 105%. `N#Cc1c(-c2ccco2)cc(-c2ccccn2)nc1N` was tested, and the GTP binding activity was inconclusive: 87%. In the case of `CC1(c2ccccn2)Nc2ccccc2-c2nc3ccccc3n21` (stereo unspecified), the GTP binding activity is reported as inconclusive: 107%. In the case of `O=C(CSc1ncccn1)NCc1cccc(Cl)c1`, the GTP binding activity is reported as inconclusive: 95%. In the case of `COC(=O)c1c(N2C(=O)[C@H]3[C@@H](C2=O)[C@]2(C(=O)Nc4c2ccc(C)c4C)N2CCC[C@@H]32)sc(C)c1C`, the GTP binding activity is reported as active: 129% [activator]. In the case of `Cc1cc(C)c(C(=O)C2OC(=O)C(C)(C)C(=O)C2(C)C)c(C)c1` (stereo unspecified), the GTP binding activity is reported as inactive: 103%. `O=C(CSc1nc(-c2ccccc2)cs1)N1CCN(C(=O)c2ccco2)CC1` was tested, and the GTP binding activity was inconclusive: 93%. For `N#CCC(=O)Nc1ncc(Cc2ccccc2Cl)s1`, the GTP binding activity was inconclusive: 94%. With `COc1ccc(-n2c(C)nn(CC3CC3)c2=O)cc1` the GTP binding activity was inactive: 100%. For `O=C(N/N=C(\c1ccccc1)c1ccccn1)c1cccc([N+](=O)[O-])c1`, the GTP binding activity was inconclusive: 76%. `COc1cc(/C=C2/C(C)=C(C#N)c3nc(N)c(C#N)c(C)c32)ccc1OCC(=O)O` was tested, and the GTP binding activity was inactive: 81%. With `O=[N+]([O-])c1ccc(O)c(/C=N/NC2=NS(=O)(=O)c3ccccc32)c1` the GTP binding activity was inconclusive: 87%. `O=c1c2ccccc2c(/C=N/n2cnnc2)c(O)n1-c1ccccc1F` was tested, and the GTP binding activity was inconclusive: 87%. With `COc1ccc(-c2cc(N3C(=O)Nc4ccccc4N3O)n[nH]2)c(OC)c1` the GTP binding activity was inconclusive: 82%. `O=C(CCc1c[nH]c2ccccc12)NCc1ccco1` was tested, and the GTP binding activity was inconclusive: 96%. For `Cc1cc(N2CCOCC2)nc2ccc(NC(=O)CCC(=O)N3CCC(C)CC3)cc12`, the GTP binding activity was inconclusive: 103%. `CCC1C(=O)CC(c2ccccc2)NC1c1ccccc1` (stereo unspecified) was tested, and the GTP binding activity was inconclusive: 96%. For `COc1ccc(/C=C2/N=C(SCC(=O)Nc3cc(C)on3)N(c3ccccc3)C2=O)cc1`, the GTP binding activity was inactive: 82%. With `Cc1ccc(NC(=O)COc2ccc(-c3nnco3)cc2)cc1S(=O)(=O)N1CCOCC1` the GTP binding activity was inactive: 94%. For `CNC(=S)NNC(=O)c1cccn(Cc2ccc(Cl)cc2Cl)c1=O`, the GTP binding activity was inconclusive: 105%. With `O=C(Cc1ccccc1)Nc1cccc(-c2nnc(-c3ccco3)o2)c1` the GTP binding activity was inconclusive: 106%. For `Cc1ccc(Nc2nc(COC(=O)COc3ccc(C=O)cc3)cs2)cc1`, the GTP binding activity was inconclusive: 95%. For `OC(COc1ccc2c(c1)OCO2)CN1CCN(c2ccc(F)cc2)CC1` (stereo unspecified), the GTP binding activity was inconclusive: 91%. In the case of `Cn1c(=O)c2c(nc(NCC3CCCO3)n2C)n(C)c1=O` (stereo unspecified), the GTP binding activity is reported as inconclusive: 109%. With `Cn1cnnc1-c1cccc(NC(=O)c2cc(F)c(F)cc2Cl)c1` the GTP binding activity was inactive: 98%. `O=C(O)CSc1ncnc2sc3c(c12)CCCC3` was tested, and the GTP binding activity was inconclusive: 93%. In the case of `CCN(CC)c1ccc(/C=C(/C#N)C(=O)NCc2ccccc2)o1`, the GTP binding activity is reported as inconclusive: 109%. `Nc1nc(-c2ccccc2)c(N=Nc2ccccc2Cl)s1` was tested, and the GTP binding activity was inconclusive: 95%. In the case of `CC(=O)OCC(=O)Nc1ccccc1C`, the GTP binding activity is reported as inactive: 96%. With `Cc1c(NC(=O)C(C)OC(=O)c2ccc([N+](=O)[O-])s2)c(=O)n(-c2ccccc2)n1C` (stereo unspecified) the GTP binding activity was inactive: 96%. For `Cc1ccc(CNC(=O)CCOc2ccc(C(C)(C)C)cc2)cc1`, the GTP binding activity was inconclusive: 99%. `O=C(Cn1cc(/C=N/NC(=O)c2cccc(C(F)(F)F)c2)c2ccccc21)Nc1ccc(F)cc1` was tested, and the GTP binding activity was inconclusive: 100%. `Cc1c(C=NCCOCc2ccccc2)cnn1C` was tested, and the GTP binding activity was inconclusive: 106%. With `O=C(CN1CCCCC1)Nc1cccc([N+](=O)[O-])c1` the GTP binding activity was inconclusive: 107%. In the case of `Cc1ccc(NC(=O)C2CCCN(C(=O)c3ccc(Cl)cc3)C2)cc1C` (stereo unspecified), the GTP binding activity is reported as inconclusive: 94%. For `N#CCc1c(C#N)c(N)nc(N2CCN(C=O)CC2)c1C#N`, the GTP binding activity was active: 77%. In the case of `O=C1CN(C(=O)COC(=O)c2ccccc2NCc2ccco2)c2ccccc2N1`, the GTP binding activity is reported as inconclusive: 90%. `COc1ccc(CC(=O)NC(CC(=O)O)c2cccc([N+](=O)[O-])c2)cc1` (stereo unspecified) was tested, and the GTP binding activity was inconclusive: 94%. For `Cc1cc(O)c(C(C)C)cc1NC(=O)c1ccccc1Cl`, the GTP binding activity was inconclusive: 103%. `Cc1nc(C(=O)NC(C)C)nn1-c1cc(Cl)cc(Cl)c1` was tested, and the GTP binding activity was inactive: 95%. `Cc1ccc(C)c(N2CCN(C(=O)CCn3c(=S)[nH]c4cc5c(cc4c3=O)OCO5)CC2)c1` was tested, and the GTP binding activity was inactive: 93%. `Cc1noc(C)c1S(=O)(=O)N1CCCC(C(=O)c2cccc(OC(C)C)c2)C1` (stereo unspecified) was tested, and the GTP binding activity was inactive: 100%. In the case of `CCC(C)(C)n1nnnc1C(C(C)C)N1CCN(C)CC1` (stereo unspecified), the GTP binding activity is reported as inconclusive: 103%. With `COc1ccc(Cl)cc1NC(=S)N1CCN(c2ccccn2)CC1` the GTP binding activity was inconclusive: 93%. For `CCOC(=O)c1sc2nc(C)nc(SCC(=O)NC3CCS(=O)(=O)C3)c2c1C` (stereo unspecified), the GTP binding activity was inactive: 95%.

Source: PubChem BioAssay AID760 (NMMLSC, 2007)
